Patent publication US8406870B2, “Treating cancer using electromagnetic fields in combination with other treatment regimens” (priority 2006, dated 2013)
Read-outs that look alike come from different tables or passages of the source.

Experiments:
[1] = system: ER-negative MDA-MB-231 cells
[2] = system: human breast cancer (MDA-MB-231) cells
[3] = system: human breast cancer (MDA-MB-231) cells; experiment: cells

Row | IC50 ([3]; MDA-MB-231, 24 h, read-out: concentration for complete arrest of cell proliferation (50% inhibition), Doxorubicin alone, 24 h) [nM] | IC50 ([3]; MDA-MB-231, read-out: concentration required to reach complete arrest of cell proliferation (50% inhibition), Doxorubicin + TTFields 1.25 V/cm) [nM] | IC50 ([3]; MDA-MB-231, read-out: concentration required to reach complete arrest of cell proliferation (50% inhibition), Doxorubicin + TTFields 1.75 V/cm) [nM] | Compound | effect of combined treatment on cell division ([1]; 0.1 μM Doxorubicin + 1.75 V/cm TTFields) | cell number during the 48 hours after 24 hour treatment ([1]; 0.1 μM Doxorubicin alone for 24 hours, then normal conditions) | reduction in cell number as compared to the control ([1]; 0.1 μM Doxorubicin alone, 24 hours) [%] | cell division during 72 hour treatment ([1]; 0.1 μM Doxorubicin alone, 72 hours) | Combination index CI50 ([2]; Doxorubicin + TTFields 1.25 V/cm) | effect of added TTFields on cell proliferation ([2]; Doxorubicin + TTFields 1.25 and 1.75 V/cm) | Combination index CI50 ([2]; Doxorubicin + TTFields 1.75 V/cm) | effect of added TTFields on cell proliferation ([2]; Doxorubicin all concentrations + TTFields 0.625 V/cm) | effect of combined treatment on cell number ([1]; 12.5 nM Paclitaxel + 1.75 V/cm TTFields, 24 hours and 72 hours) | cell proliferation after end of 24 hour treatment ([1]; 12.5 nM Paclitaxel alone for 24 hours, then normal conditions) | reduction in proliferation rate and cell number at end of treatment, lower than control ([1]; 12.5 nM Paclitaxel alone, 24 hours) | cell proliferation during 72 hour treatment ([1]; 12.5 nM Paclitaxel alone, 72 hours) | effect on cell proliferation rate, combination versus drug alone ([2]; Paclitaxel + TTFields 0.625 V/cm, all concentrations) | Combination index CI40 ([2]; Paclitaxel + TTFields 1.25 V/cm) | effect on cell proliferation rate, combination versus drug alone ([2]; Paclitaxel + TTFields 1.25 and 1.75 V/cm) | Combination index CI40 ([2]; Paclitaxel + TTFields 1.75 V/cm) | cell proliferation rate (% of control) ([2]; Paclitaxel alone, concentrations above 100 nM, 24 h) [%]
1 | ~1000 | 410 | 220 | COc1cccc2c1C(=O)c1c(O)c3c(c(O)c1C2=O)C[C@@](O)(C(=O)CO)C[C@@H]3O[C@H]1C[C@H](N)[C@H](O)[C@H](C)O1 [Doxorubicin] | complete halt of cell division after first 24 hours | slow increase in cell number | 26±4 | complete arrest of cell division at the end of the second day | 0.99 | statistically significant (ANOVA, P<0.05) anti-proliferation effect | 0.98 | no significant effect on cell proliferation |  |  |  |  |  |  |  |  | 
2 |  |  |  | CC(=O)O[C@H]1C(=O)[C@@]2(C)[C@H]([C@H](OC(=O)c3ccccc3)[C@]3(O)C[C@H](OC(=O)[C@H](O)[C@@H](NC(=O)c4ccccc4)c4ccccc4)C(C)=C1C3(C)C)[C@]1(OC(C)=O)CO[C@@H]1C[C@@H]2O [Paclitaxel] |  |  |  |  |  |  |  |  | induction of cell death already during the first 24 hours | complete recovery of cell proliferation rate | approx. 27±3% | proliferation completely stops during second day of treatment | same effect on cell proliferation rate as Paclitaxel alone | 0.97 | statistically significant (ANOVA, P<0.05) additional decrease in cell proliferation rate | 0.86 | ~50
